According to the supplement of paper PMC10185492:
The other results are listed elsewhere or left out. Values come from read counts of a selection and are noisy.

Test system: SARS-CoV-2 3CLpro (nsp5)
Test: substrate phage enrichment score (protease-eluted vs HEPES control, +1 offset) (ratio); higher = better cleaved substrate
Details: selection round: 4; protease elution time: 15 min
Experimental: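 Random heptapeptide substrate phage display (M13 pIII fusion, heptapeptide between an N-terminal biotinylated AviTag GLNDIFEAQKIEWHE and pIII; phages immobilised on streptavidin) eluted by cleavage with 50 nM protease in 20 mM HEPES at 37 °C. Selected phages were NGS sequenced, and the enrichment score is (reads in protease sample + 1)/(reads in HEPES blank-selection control + 1).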

Substance | substrate phage enrichment score
LYAPRTT | > 24
EGAPQTH | > 53
KDLRSQA | 0.217
ESEQMSP | 0.762
RPGDNGK | > 45
LPCVSEH | > 31
PNNQGGS | 1.09
KEMSSLQ | > 31
SATQTTS | > 38
RPSASQR | 1.06
KYAPSSS | > 33
GDEMNPA | 2
YDVQKIR | 1.52
RPAASRQ | 7.25
TPDLHDR | 12.5
EDRLYKP | > 35
WERTSSC | > 23
LHFQGGS | 1.5
PQANVLQ | 0.3
SPAPAPC | 0.368
TPCRLQH | > 44
CTGYCYS | 3.89
HWTREYG | > 36

Substance | substrate phage enrichment score
RSFGPVK | 8.25
IRSGDKQ | > 25
TETPYVP | > 22
VPPQMRV | > 47
HRAGYMH | 1.65
CVHATSS | 3.33
NRTKLPC | 0.0556
PKLQSHQ | > 56
CRFMGYH | > 22
KPTQWLQ | > 33
NRSGNMQ | 3.29
KPNGQAY | 0.318
AKRGELR | 2.06
LPVYGEH | 2.67
VTSGTTG | 5.5
GLSGPKA | 8.75
WVYDTEA | > 28
TKPGESP | 1.21
PGLGSMA | > 65
HQCVILQ | > 23
RRHPKCR | > 38
KAASAAA | > 28
TSSRENR | > 68

Substance | substrate phage enrichment score
IATTDTY | 0.0909
RYIQSTT | 14
ACAAAHH | 0.316
AAAHQQH | 2
YSAAHHH | 0.355
LKDRNLT | 2.24
VTVDPHR | > 34
NYLSQEY | 0.103
SCLCSSG | > 23
HCVPDLG | 1.2
RPGHVQI | > 22
RNSSRVQ | 1.88
VRCWLPH | > 21
KENTVMG | 2.67
LPQNVQT | > 36
RPVVKQQ | 0.875
SDTHATE | 13.3
NATAHHH | 1.07
TTDLTTK | 3
HYHHHGA | 0.438
NRGGLKQ | 37
TTCSLPH | > 26
AHRDECC | > 21

Substance | substrate phage enrichment score
RCLQGVN | 0.069
ESVSHLQ | > 32
VQTRLQS | > 163
VSDTSWP | 3.4
PNMATSR | 2.48
SSSGDCQ | 1.14
NRNAGIE | > 66
QTGWCSD | 1.82
LKWNTDG | 0.87
LPCVILQ | > 54
VSCSSCN | > 63
PADLNGR | 1.21
SSTSQLS | 4.29
VRPHNII | 1.16
QKETLSL | 0.333
CSTLLQS | > 382
RYQELNP | > 129
QGPQHLG | 0.375
EMSKPIE | 0.929
SLKCFRG | 5.78
TSGINPV | 0.15
QSRDTQG | 2.43
ATLPAGG | > 22

Substance | substrate phage enrichment score
ELTPDNY | > 34
PSSGDHR | 3
NSHLPMK | 0.55
ENNWQGD | > 31
EQARAGN | 3.46
SIATWSC | > 30
RHHHHGA | 0.846
HHHQGGS | 13.5
RSDVKPM | 2.71
HFQGGSA | 1.73
TESVTLQ | 34.2
YACGLDR | 6.5
PHQNPGE | > 23
RRWETMP | 1.5
PFNGTTP | 8.14
GRDEMNH | 10.5
HTKCVSL | 4.75
HGTSALQ | > 31
SVPTAHH | > 60
NWAAHHH | 0.279
RHMQPRY | > 23
GVSQPHH | 1.25
QSGSSRH | 2.29

Substance | substrate phage enrichment score
VAANGSR | > 58
VGKMHDC | 0.545
NSAAAHH | 0.765
TYVGTCR | > 23
ANSSFMR | > 55
VCLQASQ | > 23
GCSTLQS | > 21
QAAAHHH | 0.869
AQSDEIP | 9.57
QQVKPLS | 1.9
SVEIGTV | 1.75
SRAAHHH | 0.395
PYVSPGP | > 22
YAKNGRS | 21.5
TQHRDFR | 3.33
QRYFQGG | 0.0909
RTNPSNR | > 37
PPKAQSG | 1.81
VPQNAGT | 2.7
PKYNVNV | > 29
MLPDSLR | > 31
PLVGTHT | > 70
STDGQWQ | 3.12

Substance | substrate phage enrichment score
AKYNQNA | 3.57
STDWHPR | 0.278
SRQVVLQ | > 33
RTEPAAH | > 39
SRGIETC | 1.55
LPDTHAR | > 38
FISPSKQ | 4.45
VNGNDLQ | 2.2
FQSSRST | 0.444
DFVLPRG | > 23
RSGTEKC | > 29
AFNTVGR | 1.93
KEHLDDW | > 37
GSESMAS | > 21
SARSTVI | 4.75
TGCKQEK | > 65
TDRSHSR | > 43
DVRYSAQ | 3.17
RVTLHGR | > 43
LTNCRIK | 4
TKSDPPR | > 27
QFSTLQG | 7
PSRSHGN | 2.73

Substance | substrate phage enrichment score
RHLVSKP | 9.33
NPLSECM | 1.86
EKPSRLQ | > 31
NQNPPLK | > 21
SPLHRNR | 1.67
KRGNAAA | 7.5
CCELQSL | > 21
KCSHPSR | > 41
GLGDSAW | 5
VQGAIPP | > 25
AKIRECR | > 27
ESALTNR | > 30
LITAPHT | 3.4
EHGKLRS | 4.5
ETYRTCH | 0.118
NAHPTLQ | > 96
SSARRPG | 6.82
LQAKPNR | 0.565
ARPHNRL | > 28
SSQTWTV | 1.85
ESGARLG | 36.8
GRSSSDM | 1.67
